Experimental data as given in PubChem BioAssay AID1948 (National Center for Advancing Translational Sciences (NCATS), 2009).
Screen size: about 110,000 compounds; about 20 (0.02%) were called active. The inconclusive results got no clear call from the source; some entries with a clear call stand among them for comparison. Calls come from the whole dose curve; as a rule, active = well fitted activation curve with a large enough effect; inconclusive = small, poorly fitted or top-dose-only effect; inactive = no such curve, though single readings can be large or run the other way. A potency beside an inconclusive call is a rough fit, not a confirmed value.

test: qHTS Assay for Compounds that Induce Erasure of Genomic Imprints; conditions: mouse ES Peg3-LacZ reporter, beta-gal luminescence, 40 h; activity change, positive = activation: at 10.9 µM (top of the series) unless noted;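 for activity change, positive = activation: 0% = negative control wells on the plate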
How it was run: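 Readout: BetaGlo luminescence (5 min, room temp) for LacZ from the normally silent maternal Peg3 allele in female Peg3LacZ-Neo ES cells. Cells 300/well, 40 h, 37C, 5% CO2. Data normalized per plate to negative controls.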
Potency is the fitted concentration of half-maximal effect; tags give direction and shape of the fitted curve.

| Structure (SMILES) | activity change, positive = activation | Potency |
| --- | --- | --- |
| CCOc1ccc(NC(=O)CSc2nc(-c3cccc(Cl)c3)nc3c2Cc2c(CO)cnc(C)c2O3)cc1 | inconclusive: 31.1% [activator] |  |
| NC(=O)c1cc(-c2ccccc2)nc(N2CCOCC2)n1 |  | inconclusive: 3.16 µM [activator, full curve, poor fit] |
| COCCNc1nc(-c2ccoc2)nc2ccccc12 |  | inconclusive: 6.31 µM [activator, single point] |
| O=C(CSCc1cnn(-c2ccccc2)c1-n1cccc1)NCc1ccc2c(c1)OCO2 | inactive: -7.5% [at 60.7 µM] |  |
| CC(C)C(=O)Nc1nnc(S(=O)(=O)N(C)Cc2ccc(F)cc2)s1 | inconclusive: 43% [activator] |  |
| O=C(Nc1cccnc1)Nc1ccc(F)c(Cl)c1 | inactive: -17.9% [at 60.7 µM] |  |
| Fc1ccc(Nc2nc(SCc3cccc(F)c3)nc3ccccc23)cc1 | inactive: 10.2% |  |
| N#CC1=C(N)Oc2n[nH]c(-c3cccs3)c2C1c1ccoc1 (stereo not given) | inactive: 10.7% [at 60.7 µM] |  |
| CC(C)Oc1ccc(CNC(=O)CN2C(=O)CCn3nc(-c4cn(C)c5ccccc45)cc32)cc1 | inconclusive: 30.5% [activator] |  |
| Cc1ccc(NC(=O)Cc2ccc(NC(=O)N3CCCCc4ccccc43)cc2)cc1Cl | inconclusive: 43.9% [activator] |  |
| O=[N+]([O-])c1ccc(S(=O)(=O)Cc2ccccc2)c2nonc12 |  | inconclusive: 1.26 µM [activator, single point] |
| COc1ccccc1N1CCN(c2nc3ccccc3n3cnnc23)CC1 | inactive: -6.03% |  |
| CCOc1ccc(NC(=O)c2c(C)nn(-c3ccc(F)cc3)c2-n2cccc2)cc1 | inconclusive: 54.4% [activator] |  |
| Cc1ccc(NC(=O)CN(C)S(=O)(=O)c2ccc3c(c2)n(C)c(=O)c(=O)n3C)cc1F | inconclusive: 46.7% [activator] |  |
| Cc1ccc(-n2c(SCn3nnc4ccccc4c3=O)nnc2-c2cccnc2)c(C)c1 | inactive: -12.2% [at 60.7 µM] |  |
| O=C(Cc1c(O)c2ccccc2[nH]c1=O)NC1CCCCCC1 |  | inconclusive: 25.1 µM [activator, single point] |
| COc1cc(OC)cc(C(=O)Nc2ccc3nc4c(c(Nc5ccc(OC)c(OC)c5)c3c2)CCCC4)c1 | inconclusive: 30% [activator] |  |
| Cc1nn(Cc2ccccc2)c(C)c1NC(=O)c1cc(-c2ccco2)on1 | inactive: -27.9% [at 60.7 µM] |  |
| Cc1ccc(S(=O)(=O)C(CNC(=O)COc2ccccc2)c2cccs2)cc1 (stereo not given) | inconclusive: 39.3% [activator] |  |
| COCCn1c(=O)c(-c2cn(C)c3ccccc23)nc2cnc(N3CCOCC3)nc21 |  | inconclusive: 31.6 µM [activator, single point] |
| CCn1c(N2CCN(S(=O)(=O)c3ccccc3C(F)(F)F)CC2)nc2ccccc21 | inactive: -12.1% [at 60.7 µM] |  |
| Cn1c(C[C@@H](O)c2nc3ccccc3n2C)nc2ccccc21 |  | inconclusive: 0.631 µM [activator, single point] |
| Cc1cc(Br)cc(C)c1NC(=O)c1cnc2ccccn2c1=O | inactive: 2.9% |  |
| Cc1noc(C)c1S(=O)(=O)Nc1ccc(C(=O)Nc2ccc(C(C)C)cc2)cc1 | inconclusive: 43.5% [activator] |  |
| O=C1c2ccccc2C(=O)N1Cc1nn2c(-c3ccc(Cl)cc3)nnc2s1 |  | inconclusive: 12.6 µM [activator, single point] |

| Structure (SMILES) | activity change, positive = activation | Potency |
| --- | --- | --- |
| COc1c(C)cccc1C(=O)Nc1ccc(Cl)c(-c2nc3cc(C)ccc3o2)c1 | inconclusive: 40.8% [activator] |  |
| COc1ccccc1NC(=O)CSc1ccc2nnc(-c3ccncc3)n2n1 |  | inconclusive: 31.6 µM [activator, single point] |
| CCN(CC)c1ccc(NC(=O)CN(C)S(=O)(=O)c2cccc3nsnc23)c(C)c1 | inactive: 2.77% |  |
| CC(C)c1ccc(NC(=O)c2ccc3oc(=O)c(S(=O)(=O)c4ccc(F)cc4)cc3c2)cc1 | inconclusive: 43.9% [activator] |  |
| COCCNC(=O)CCCn1c(SCC(=O)c2ccc(F)cc2)nc2c(sc3ccccc32)c1=O | inconclusive: 31.7% [activator] |  |
| CC(C)Oc1cc(O)c2c(c1)OCC=C2CCC(=O)O |  | inconclusive: 1.26 µM [activator, single point] |
| N#Cc1cccc(NC(=O)C2CCN(c3ncccn3)CC2)c1 | inactive: -11.7% |  |
| CCCCCN1C(C(=O)c2ccccc2)=C(NC(=O)c2ccccc2Cl)c2ccccc2S1(=O)=O | inactive: -17.1% |  |
| COc1ccc(-c2nc3cnc(N4CCOCC4)nc3n(Cc3cccc(OC)c3)c2=O)cc1 |  | inconclusive: 10 µM [activator, single point] |
| CC(C)Cn1c(/C=C/c2ccc(F)cc2)nc2ccccc21 | inactive: -9.47% |  |
| O=C(c1cccs1)N1CCCc2cc(NS(=O)(=O)c3ccc(F)cc3)ccc21 | inconclusive: 39% [activator] |  |
| COc1ccccc1N1CCN(C/C=C/c2ccc(N(C)C)cc2)CC1 | inactive: -12.4% [at 60.7 µM] |  |
| CCC(C(=O)Nc1ccc(C(C)=O)cc1)n1c(C)c2cnn(-c3ccccc3)c(=O)c2c1C (stereo not given) | inconclusive: 36.9% [activator] |  |
| Cc1ccc(C)c(NC(=O)c2cc(=O)c3cc(C)cc(C)c3o2)c1 | inactive: 7.67% |  |
| Cc1cc(C)n(-c2nc3ccccc3n3cnnc23)n1 |  | inconclusive: 0.126 µM [activator, full curve, poor fit] |
| Cc1ccc(NC(=O)CSc2nnc(N)s2)c(C)c1 | inconclusive: 35.9% [activator] |  |
| COc1ccc(OCC(=O)Nc2cccc(C(C)=O)c2)cc1 |  | inconclusive: 3.98 µM [activator, single point] |
| Cc1nc(-c2ccc(F)cc2)sc1CCNC(=O)c1ccco1 | inactive: 9.12% |  |
| Cc1c(NC(=O)c2sc3c([N+](=O)[O-])cccc3c2Cl)cccc1-c1nc2ccccc2o1 | inconclusive: 39.6% [activator] |  |
| O=C(COc1ccc(-n2cnnn2)cc1)NCCc1ccc(F)cc1 | inactive: 1.54% [at 60.7 µM] |  |
| O=c1c(O)c(-c2ccccc2)oc2cccc(O)c12 |  | inconclusive: 0.316 µM [activator, partial curve] |
| O=C1C2C3C=CC(CO)(O3)C2C(=O)N1c1ccccc1-c1ccccc1 (stereo not given) |  | inconclusive: 0.251 µM [activator, single point] |
| CCc1ccccc1-n1cnc2cc(C(=O)O)ccc21 |  | inconclusive: 31.6 µM [activator, single point] |
| COc1cccc(NC(=O)CSc2nnc(NC(=O)NC3CCCCC3)s2)c1 | inconclusive: 40.5% [activator] |  |
| Cc1cccc(C)c1OCc1cc(=O)n2ccsc2n1 | inactive: -6.48% |  |

| Structure (SMILES) | activity change, positive = activation | Potency |
| --- | --- | --- |
| CCCOc1ccccc1C(=O)Nc1nc2c(s1)CCCC2 | inactive: -16% |  |
| CC(C)CCCC(C)C1CCC2C3CC[C@H]4CC(=O)CC[C@@]4(C)C3CC[C@@]12C (stereo not given in full) |  | inconclusive: 1.58 µM [activator, partial curve] |
| COc1ccc(NC(=O)c2oc3ccc4c(c3c2C)C(=O)CC(C)(C)O4)cc1OC | inconclusive: 52.3% [activator] |  |
| Cc1ccc2c(CC(=O)Nc3ccc(S(=O)(=O)Nc4nc(C)cc(C)n4)cc3)coc2c1 | inconclusive: 71.4% [activator] |  |
| O=C(O)/C=C\c1c2ccc(=O)c(O)c-2oc2c(O)c(O)ccc12 | inactive: 5.64% |  |
| COc1ccc(NC2CC(=O)NC2=O)cc1 (stereo not given) |  | inconclusive: 31.6 µM [activator, single point] |
| COc1ccccc1-c1ccc2ncnc(N3CCNCC3)c2c1 |  | inconclusive: 6.31 µM [activator, single point] |
| COc1cccc(NS(=O)(=O)c2ccc3[nH]cc(C(=O)NCCc4ccc(C)cc4)c(=O)c3c2)c1 | inconclusive: 42.9% [activator] |  |
| Cc1ccc(NC(c2cccc(Cl)c2)c2nnc(-c3ccccc3)o2)cc1F (stereo not given) | inactive: -10.5% |  |
| O=C1NCCN1C(=O)c1ccco1 | inconclusive: 62.5% [activator] [at 60.7 µM] |  |
| CCCC(C)C(=O)Nc1ccc(Cl)cn1 (stereo not given) |  | inconclusive: 31.6 µM [activator, single point] |
| CCc1ccc(Nc2nc3ccccc3c3nnc(C)n23)cc1 | inconclusive: 86.7% [activator] |  |
| COc1ccccc1-c1cncnc1NCCNC(C)=O |  | inconclusive: 3.16 µM [activator, single point] |
| CN(Cc1ccco1)c1ccnc(-c2cccc(C#N)c2)n1 |  | inconclusive: 3.16 µM [activator, partial curve] |
| Clc1ccc(-c2nnc(-c3ccccc3)o2)c(Cl)c1 | inactive: -31.4% [at 60.7 µM] |  |
| NC(N)=NC(N)=Nc1c(F)c(F)c(F)c(F)c1F | inactive: -30.9% |  |
| COc1ccc(OCC(=O)Nc2cccc(-c3nc4ccccc4o3)c2)cc1 | inactive: -61.8% [at 60.7 µM] |  |
| COc1cccc(Cn2c(=O)c(-c3cc(F)cc(F)c3)nc3cnc(N4CCN(C)CC4)nc32)c1 |  | inconclusive: 31.6 µM [activator, single point] |
| COc1cccc(Nc2ncc3ncc(=O)n(CCc4ccccc4)c3n2)c1 |  | inconclusive: 3.98 µM [activator, single point] |
| CC(=O)NCCNc1nc(-c2ccc(N(C)C)cc2)nc2ccccc12 |  | inconclusive: 12.6 µM [activator, single point] |
| COCCn1c(=O)c(-c2cccc(C#N)c2)nc2cnc(N3CCN(C)CC3)nc21 |  | inconclusive: 31.6 µM [activator, single point] |
| O=C(OC(C(=O)NC1CCCC1)c1ccc(F)cc1)c1ccno1 (stereo not given) |  | inconclusive: 3.16 µM [activator, single point] |
| COc1ccc(-c2nc(C#N)c(NCCc3ccccc3)o2)cc1 | inactive: 2.55% [at 60.7 µM] |  |
| Cc1cc(C)c2c(-n3cccc3)c(C(=O)NCCCN3CCCCC3C)sc2n1 (stereo not given) | inconclusive: 36% [activator] |  |
| Cc1ccc(Cn2c(CNS(=O)(=O)c3c(C)cc(C)cc3C)nc3cccnc32)cc1 | inconclusive: 41.2% [activator] |  |
